Reference: PMC12136788
Positions count from the first letter of the chain named. The list shows a part of the results.

T1: UNK ZnF1-3 (human, UniProt Q9C0B0 31-174)
T1 sequence: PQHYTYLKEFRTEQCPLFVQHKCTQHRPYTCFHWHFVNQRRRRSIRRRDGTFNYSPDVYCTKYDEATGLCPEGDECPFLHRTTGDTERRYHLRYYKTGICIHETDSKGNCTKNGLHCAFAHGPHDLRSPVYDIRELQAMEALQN

B1: chr2:162087991:162087992:+_ENSG00000136560_ENST00000392749|hu_hu|FALSE|FALSE (ssRNA)
RNA: GGGAGUUCUACAGUCCGACGAUCUUUUCCCGGGGAAUCGAGUGAGGGAAAAGGUGCAUCAGAUGGGUCCAGAAGUGGGAAGCUAUUUACAUAUAAUGCAUUAUGGUCUCCAGGUGGCAAACACGCAGCUCUAUCCAGAGUUGUCAACAGAGGAUUGAGCAUCA
B2: 30653276_30653396_590_CDS_ENSG00000146112_ENST00000399199|human|control|control (ssRNA)
RNA: GGGAGUUCUACAGUCCGACGAUCCCUCCAGUCCCGAGCCUCCAGAGGCCUCAGGCUCAACUCUUGGGCUCCCCCUAUCCCCAGCCUCCUCUCUCUGGUCUCCCUCGGACUUAGUCUCUCUUCUCUUGACUCUCUUCCCUUGGGCAACAGAGGAUUGAGCAUCA
B3: chrX:20248820:20248821:+_ENSMUSG00000001924_ENSMUST00000001989|mus_mus|mus_mus_mus_hu_True|88_88 (ssRNA)
RNA: GGGAGUUCUACAGUCCGACGAUCGGCGAAGUCCGUCACCACAAAGUCAGGCUCUACCAGUGAGGCCACCAAGGAUUUAAAGCUAAUCUUCUUAGGUACUUUGACCUGACUGACGAUGCCUCCACGGAUGUAGUCGGAGAAGUUCAACAGAGGAUUGAGCAUCA
B4: chr16:94664741:94664742:+_ENSMUSG00000040785_ENSMUST00000117648|mus_hu|mus_mus_mus_hu_False|48_98 (ssRNA)
RNA: GGGAGUUCUACAGUCCGACGAUCUGGUACUGAUCUUUGCAUUGGAUAUUCAGGAGAAAGGCUGGCCAAGGGUGUAUAUAUGCUGGUGAACUGCGACAAACCUGGUAACACGUUUAUGUAUGCUGGCGGUGUCUGGGUGAUAUCCAACAGAGGAUUGAGCAUCA
B5: chr11:122930872:122930873:-_ENSG00000109971_ENST00000227378|hu_hu|motif|central (ssRNA)
RNA: GGGAGUUCUACAGUCCGACGAUCAACCUUUUUGUCUAAGCCGUAAGCAAUAGCAGCAGCAGUUGGCUCAUUAAUAAUUCGGAGUACAUUGAGACCAGCAAUAGUUCCAGCAUCUUUGGUAGCCUGACGCUGAGAGUCAUUAAACAACAGAGGAUUGAGCAUCA
B6: chr4:148551591:148551592:-_ENSMUSG00000063077_ENSMUST00000060537|mus_hu|mus_mus_mus_hu_False|8_58 (ssRNA)
RNA: GGGAGUUCUACAGUCCGACGAUCACCUGACAAAAUUAAAUAUCCCUGUAAAUUAGACAAUAAGCAGCAGGCAACAAAGUCUAUGCUUUGGAAUAUGUGCCAGGAAAAGUCAUCUUGUUUUUAGAUCACACCUUUCAGUUCACACAACAGAGGAUUGAGCAUCA
B7: chr15:84027467:84027468:+_ENSMUSG00000022437_ENSMUST00000023071|mus_hu|FALSE|FALSE (ssRNA)
RNA: GGGAGUUCUACAGUCCGACGAUCUUUGGCCUUGAAAACAUCUCCAAUUUCACAAAUGAUGAUAUCAUCUUUAGUCCUUCCAAGUCCAUCAAAAUGAACAUGUUGAACAACCACAUCUUUGUUUUCAAGAAUUUCCUGUUUAGCCAACAGAGGAUUGAGCAUCA
B8: chr2:155483634:155483635:-_ENSMUSG00000038324_ENSMUST00000041059|perfect_dup|FALSE|FALSE (ssRNA)
RNA: GGGAGUUCUACAGUCCGACGAUCGGUGACAGCCAGGAUCCUGCAGAAGUUAGCAAGCUGCUGCUGAUCGAAAUUGGAUACUAAGGAACUCAGAUUGGGAACUUCAUCUAGCCGGAUCAUUUCCUUCUUAACACCCAAAAUGUCCAACAGAGGAUUGAGCAUCA
B9: chr5:23013406:23013407:-_ENSMUSG00000062604_ENSMUST00000088392|mus_mus|motif|central (ssRNA)
RNA: GGGAGUUCUACAGUCCGACGAUCUCCAAUGUACUGGGAGAAAUUUGCUAGCUCAGAAUGCUAUAUUUGUAGAAUCUGCGGAGAAUUCAACCAAGGAUGUCGAAGGCAUUCGCCAGCUGAGGCUCGUUUUUCUGGAACCAUCUCCAACAGAGGAUUGAGCAUCA
B10: chr3:122261000:122261001:-_ENSMUSG00000039735_ENSMUST00000162409|mus_hu|motif|central (ssRNA)
RNA: GGGAGUUCUACAGUCCGACGAUCGUAAUCUUCAAAUGGAAAGUCUCCUGGAGGUUCAAAACCAGAUUUGAAGGAGUCGGCCACCAUUUGAGAGUCUCUUCUUUCAUCAACUGAUUUUGCUGCAAGAAUCAUUCCUUCCAAACACAACAGAGGAUUGAGCAUCA
B11: chr5:43656058:43656059:+_ENSG00000112992_ENST00000512996|hu_mus|FALSE|FALSE (ssRNA)
RNA: GGGAGUUCUACAGUCCGACGAUCGUAAGCCACAAUCUUGGUGAAAUUUGACGUGGCAUCCAUUGCAAAAUGUGGAUACUCUACGAUGUACUCGGCCAUGCAGGUAAGAACUGCUGCCAGCCCCACCAAACUGUGGAAAGCAGCCAACAGAGGAUUGAGCAUCA
B12: chr5:33369694:33369695:+_ENSMUSG00000018965_ENSMUST00000019109|mus_mus|FALSE|FALSE (ssRNA)
RNA: GGGAGUUCUACAGUCCGACGAUCGGAAUCCUCGUUUAAUGUGUCCAGCUCAGCUAUAGCAUCAUCGAAGGCUUGUUUGGCUAAGAGGCAGGCUUGCUCUGGUGCAUUCUGGAUCUCAUAGUAGAACACAGAAAAAUUGAGGGCCAACAGAGGAUUGAGCAUCA
B13: chrX:153608698:153608699:+_ENSG00000102119_ENST00000428228|hu_hu|FALSE|FALSE (ssRNA)
RNA: GGGAGUUCUACAGUCCGACGAUCAAGAAGACAAAAGAUCGUCAUCAUGCACCUGGUGAUGGAAAGCGUCAGCAUCUGGGAAUGAAGUCACUGACUGGCGGACAGCCCUGGACGGGCCGGCAGACUCGGGCUCCCCAUAAGUCCCAACAGAGGAUUGAGCAUCA
B14: chr15:31387667:31387668:-_ENSMUSG00000039100_ENSMUST00000090227|mus_mus|FALSE|FALSE (ssRNA)
RNA: GGGAGUUCUACAGUCCGACGAUCUGGGCCCUCAGACCUUUCCAACUAUGGGUUUAAUACUCCAUGGAACUCUUUACAGUCUAUGAAAGCUUCUAGCACUAUCCUUAUAAUACACCUUUACCAUUAAACACUUGAAUGACGUACCAACAGAGGAUUGAGCAUCA
B15: 125334109_125334363_2357_CDS_ENSMUSG00000030655_ENSMUST00000032891|mouse|control|control (ssRNA)
RNA: GGGAGUUCUACAGUCCGACGAUCAUCAAAUAAGGAAGGGGAUGAAGAGCUAAGACUACUGGAUAUGAAGUGAUCGUGCCUGGUACAAUGGGAAUACAGGGUGUAGAGCACCGCAUACUGAAUGGCAGGGAAGUGAACAGCCAGCAACAGAGGAUUGAGCAUCA
B16: chr2:157388187:157388188:+_ENSMUSG00000067786_ENSMUST00000109526|mus_mus|motif|central (ssRNA)
RNA: GGGAGUUCUACAGUCCGACGAUCUUUUGGUGGAGGUGGUCCCUGUCUCCAGGAGCUUACAAUCUAGCUGGGGAGACACGGCGGAUGCACACUUAAACCAGUACAAUUAGCGACUACCACAAUAUUGACCACAACUGCUGCGUGCAACAGAGGAUUGAGCAUCA
B17: chr18:42480448:42480449:+_ENSMUSG00000024491_ENSMUST00000091920|mus_hu|motif|central (ssRNA)
RNA: GGGAGUUCUACAGUCCGACGAUCGAAGUGUUCAUUGAGCUUGGUAAUGUUGUUCAAUUCCUGAGGGAUUUUCUUGACUUCGGAUUUGGUGUUUGUAUACUGAUUCUUUCGUAAGAACCCUGGUUUAUUUUGAUUGUUAUUUCCCAACAGAGGAUUGAGCAUCA
B18: chr4:33332862:33332863:-_ENSMUSG00000040128_ENSMUST00000049357|mus_mus|motif|central (ssRNA)
RNA: GGGAGUUCUACAGUCCGACGAUCUAUAUACAAAACACCACCACAGCUGCAGGGCAAAAUACAUACUUUCAUAACAAAACGGUAAUGUCCUCUCAAGUAUGAACAAUGUACACAUAAUACAUGGUAUACAGUAUUUACAAAAUACAACAGAGGAUUGAGCAUCA
B19: chr17:63010574:63010575:-_ENSG00000120063_ENST00000439174|hu_mus|FALSE|FALSE (ssRNA)
RNA: GGGAGUUCUACAGUCCGACGAUCGAAGCAUUCCACCAGAAACUUUUGGACGUCUCUUAAGCAGUGGGGGUCCCCUUCAAAUUCUAGGAAAUAGUCUUUGAUGCUAACAACUUGCACUUUCUCCUCGAGCAAGUCUGUCUUGUUCAACAGAGGAUUGAGCAUCA
B20: chr9:110451384:110451385:+_ENSMUSG00000044791_ENSMUST00000153838|mus_mus|motif|central (ssRNA)
RNA: GGGAGUUCUACAGUCCGACGAUCAGAAAUCUUAUUAAUUGUUCUUAAUUCACUACCUUUUGAACAAGGAGUCUGCAAACGGAACGAAUGAGAUUGUUUGUUUUCCUCAUUUAAUUCUGUACAACAGAAAGAAUUUUUAAAUUUCAACAGAGGAUUGAGCAUCA
B21: chr16:94664741:94664742:+_ENSMUSG00000040785_ENSMUST00000117648|mus_hu|mus_mus_mus_hu_False|98_98 (ssRNA)
RNA: B4 RNA with A88U, C93G, A95G
B22: chr11:99246770:99246771:-_ENSMUSG00000019761_ENSMUST00000103131|mus_mus|FALSE|FALSE (ssRNA)
RNA: GGGAGUUCUACAGUCCGACGAUCGAAGAAAUACAGAAACCACAAAACACCUUUUAGACCUUAAUUUCAAGGAGUGAACCUAUUUCCACAGACCAUUAAGACAAAAGUGUUUCUUGGACAUUUAUGUUUUCCACACGUCUGUCCCAACAGAGGAUUGAGCAUCA

The binders below were run against T1, UNK ZnF1-3 (assay: nsRBNS (natural sequence RNA bind-n-seq); RBNS binding buffer (assumed for nsRBNS): 25 mM Tris pH 7.5, 150 mM KCl, 3 mM MgCl2, 0.01% Triton X-100, 500 ug/ml BSA, 20 U/ml SUPERase-In, 4 C; UNK is unkempt and MSI1 is Musashi-1; names of the RNAs are library labels; protein concentration not given here; high values mean tight binding).

Binder | binding signal [enrichment R]
B1 | 1.23
B2 | 0.822
B3 | 0.951
B4 | 1.07
B5 | 1.52
B6 | 1.17
B7 | 0.792
B8 | 0.94
B9 | 1.13
B10 | 0.782
B11 | 0.804
B12 | 1.18
B13 | 1.61
B14 | 0.894
B15 | 2.02
B16 | 1
B17 | 0.419
B18 | 1.05
B19 | 0.391
B20 | 0.641
B21 | 1.17
B22 | 0.737
